From the supplement of paper PMC4604168 (melanoma cell lines)
Some of the results follow. Many values rest on one well or one pass, so single values are uncertain.

These compounds were tested on IST-MEL1 (assay: cell count relative to DMSO control; melanoma cells; higher = more viable cells). Settings: library dose: standard library concentration; 72 h.
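Further: cells treated in 1,536-well plates, then fixed and DAPI-stained, with nuclei counted from automated high-throughput microscope images.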

SMILES | cell count [%]
COc1cc2c(Oc3ccc4[nH]c(C)cc4c3F)ncnc2cc1OCCCN1CCCC1 [cediranib] + CCN(CC)CCCCNc1ncc2cc(-c3cc(OC)cc(OC)c3)c(NC(=O)NC(C)(C)C)nc2n1 [PD173074] (first compound 2 µM, partner dose 0.5 µM) | 98.4
NC(=O)c1ccc(N(C(N)=O)c2c(F)cccc2F)nc1-c1ccc(F)cc1F + CN(C)S(=O)(=O)c1ccc2c(c1)/C(=C/c1cc3c([nH]1)CCCC3)C(=O)N2 [SU6656] (first compound 2 µM, partner dose 2 µM) | 72.3
CCCCCCCCc1ccc(CCC(N)(CO)CO)cc1 [fingolimod] + COCC[n+]1c2c(n(Cc3cnccn3)c1C)C(=O)c1ccccc1C2=O [YM155] (first compound 10 µM, partner dose 0.002 µM) | 13.7
CC(C)(C)c1cnc(CSc2cnc(NC(=O)C3CCNCC3)s2)o1 + COc1ccc2c(c1)CCC1C2CCC2(C)C(NCCCCCCN3C(=O)C=CC3=O)CCC12 [U73122] (first compound 0.05 µM, partner dose 2 µM) | 107
CC(C)(C)c1cnc(CSc2cnc(NC(=O)C3CCNCC3)s2)o1 + COc1ccc(COc2ccc(Cc3cnc(N)nc3N)cc2OC)cc1 [GW2580] (first compound 0.05 µM, partner dose 5 µM) | 108

The compounds below were run on LB2518-MEL in the same assay as above. Settings: library dose: standard library concentration; 72 h.

SMILES | cell count [%]
COc1cc2c(Oc3ccc4[nH]c(C)cc4c3F)ncnc2cc1OCCCN1CCCC1 [cediranib] + N#Cc1c(O)c2c(-c3ccc(-c4ccccc4O)cc3)csc2[nH]c1=O [A769662] (first compound 2 µM, partner dose 10 µM) | 97
CC(C)(C)c1cnc(CSc2cnc(NC(=O)C3CCNCC3)s2)o1 + CN(C)S(=O)(=O)c1ccc2c(c1)/C(=C/c1cc3c([nH]1)CCCC3)C(=O)N2 [SU6656] (first compound 0.05 µM, partner dose 2 µM) | 63.3
COc1cc2c(Oc3ccc4[nH]c(C)cc4c3F)ncnc2cc1OCCCN1CCCC1 [cediranib] + COc1ccc(COc2ccc(Cc3cnc(N)nc3N)cc2OC)cc1 [GW2580] (first compound 2 µM, partner dose 5 µM) | 112
CCCCCCCCc1ccc(CCC(N)(CO)CO)cc1 [fingolimod] + OCCn1cc(-c2cnc3nnn(Cc4ccc5ncccc5c4)c3n2)cn1 [PF04217903] (first compound 10 µM, partner dose 5 µM) | 3.31
NC(=O)c1ccc(N(C(N)=O)c2c(F)cccc2F)nc1-c1ccc(F)cc1F + Clc1ccc(Nc2nnc(Cc3ccncc3)c3ccccc23)cc1 [vatalanib] (first compound 2 µM, partner dose 10 µM) | 92.9
CCc1ccc(CCOc2ccc(CC3SC(=O)NC3=O)cc2)nc1 (centres undefined) [pioglitazone] + CC(C)CCN1c2nc(Nc3cc(F)c(O)c(F)c3)ncc2N(C)C(=O)C1C [BID1870] (first compound 10 µM, partner dose 1 µM) | 70
Cc1ccc(NC(=O)c2cccc(N(C)C)c2)cc1NC(=O)c1ccc(O)cc1 + CN(C)S(=O)(=O)c1ccc2c(c1)/C(=C/c1cc3c([nH]1)CCCC3)C(=O)N2 [SU6656] (first compound 10 µM, partner dose 2 µM) | 70
NC(=O)c1ccc(N(C(N)=O)c2c(F)cccc2F)nc1-c1ccc(F)cc1F + Cc1cc(N2CCOCC2)cc2[nH]c(-c3c(NC[C@@H](O)c4cccc(Cl)c4)cc[nH]c3=O)nc12 [BMS536924] (first compound 2 µM, partner dose 1 µM) | 108
Cc1ccc(NC(=O)c2cccc(N(C)C)c2)cc1NC(=O)c1ccc(O)cc1 + CCCCCCCCCCCC1=C(O)C(=O)C=C(O)C1=O [Embelin] (first compound 10 µM, partner dose 6 µM) | 82.1
CN(NC(=O)CC(=O)NN(C)C(=S)c1ccccc1)C(=S)c1ccccc1 + Cn1cc(/C=C2\C(=O)Nc3cccnc32)c2ccccc21 [GW441756] (first compound 0.03 µM, partner dose 2 µM) | 34.5
CCCCCCCCc1ccc(CCC(N)(CO)CO)cc1 [fingolimod] + O=C(O)[C@@H]1[O][Sb](=[O])([O][Sb]2(=[O])[O][C@H]([C@H](O)CO)[C@H](O)[C@H](C(=O)O)[O]2)[O][C@H]([C@H](O)CO)[C@@H]1O [stibogluconate] (first compound 10 µM, partner dose 10 µM) | 61.2
Cc1ccc(NC(=O)c2cccc(N(C)C)c2)cc1NC(=O)c1ccc(O)cc1 + COc1cc(N2CCC(N3CCN(C)CC3)CC2)ccc1Nc1ncc(Cl)c(Nc2ccccc2S(=O)(=O)C(C)C)n1 [NVP-TAE684] (first compound 10 µM, partner dose 0.4 µM) | 96.4
COc1cc2c(Oc3ccc4[nH]c(C)cc4c3F)ncnc2cc1OCCCN1CCCC1 [cediranib] + COc1cc(N2CCC(N3CCN(C)CC3)CC2)ccc1Nc1ncc(Cl)c(Nc2ccccc2S(=O)(=O)C(C)C)n1 [NVP-TAE684] (first compound 2 µM, partner dose 0.4 µM) | 95.7
COc1cc2c(Oc3ccc4[nH]c(C)cc4c3F)ncnc2cc1OCCCN1CCCC1 [cediranib] + Cn1cc(/C=C2\C(=O)Nc3cccnc32)c2ccccc21 [GW441756] (first compound 2 µM, partner dose 2 µM) | 89.1
COc1cc2c(Oc3ccc4[nH]c(C)cc4c3F)ncnc2cc1OCCCN1CCCC1 [cediranib] + Oc1cc(-c2nc(-c3ccccc3)[nH]c2-c2ccncc2)ccc1Cl [L779450] (first compound 2 µM, partner dose 1 µM) | 94.2
NC(=O)c1ccc(N(C(N)=O)c2c(F)cccc2F)nc1-c1ccc(F)cc1F + Cc1nc(Nc2ncc(C(=O)Nc3c(C)cccc3Cl)s2)cc(N2CCN(CCO)CC2)n1 [dasatanib] (first compound 2 µM, partner dose 0.02 µM) | 73
CC(C)(C)c1cnc(CSc2cnc(NC(=O)C3CCNCC3)s2)o1 + c1cc(-c2cnn3cc(-c4ccc(OCCN5CCCCC5)cc4)cnc23)ccn1 [Dorsomorphin] (first compound 0.05 µM, partner dose 2 µM) | 12.3
CC(C)(C)c1cnc(CSc2cnc(NC(=O)C3CCNCC3)s2)o1 + C[C@@H]1CCN(C(=O)CC#N)C[C@@H]1N(C)c1ncnc2[nH]ccc12 [CP690550] (first compound 0.05 µM, partner dose 5 µM) | 70.2
CC(C)(C)c1cnc(CSc2cnc(NC(=O)C3CCNCC3)s2)o1 + Oc1nc(-c2ccc(C(F)(F)F)cc2)nc2c1CSCC2 [XAV939] (first compound 0.05 µM, partner dose 10 µM) | 65.1
NC(=O)c1ccc(N(C(N)=O)c2c(F)cccc2F)nc1-c1ccc(F)cc1F + C=C(c1ccc(C(=O)O)cc1)c1cc2c(cc1C)C(C)(C)CCC2(C)C [Bexarotene] (first compound 2 µM, partner dose 10 µM) | 116
CCc1ccc(CCOc2ccc(CC3SC(=O)NC3=O)cc2)nc1 (centres undefined) [pioglitazone] + N#Cc1c(O)c2c(-c3ccc(-c4ccccc4O)cc3)csc2[nH]c1=O [A769662] (first compound 10 µM, partner dose 10 µM) | 102
CC(C)(C)c1cnc(CSc2cnc(NC(=O)C3CCNCC3)s2)o1 + Cc1cc([N+](=O)[O-])ccc1NS(=O)(=O)c1cc(Cl)ccc1Cl [FH535] (first compound 0.05 µM, partner dose 5 µM) | 59.6
NC(=O)c1ccc(N(C(N)=O)c2c(F)cccc2F)nc1-c1ccc(F)cc1F + CN(c1ncccc1CNc1nc(Nc2ccc3c(c2)CC(=O)N3)ncc1C(F)(F)F)S(C)(=O)=O [PF562271] (first compound 2 µM, partner dose 0.4 µM) | 76.4
Cc1ccc(NC(=O)c2cccc(N(C)C)c2)cc1NC(=O)c1ccc(O)cc1 + Cc1cc(N2CCOCC2)cc2[nH]c(-c3c(NC[C@@H](O)c4cccc(Cl)c4)cc[nH]c3=O)nc12 [BMS536924] (first compound 10 µM, partner dose 1 µM) | 86
Cc1ccc(NC(=O)c2cccc(N(C)C)c2)cc1NC(=O)c1ccc(O)cc1 + Cn1cc(/C=C2\C(=O)Nc3cccnc32)c2ccccc21 [GW441756] (first compound 10 µM, partner dose 2 µM) | 80.2
CC(C)(C)c1cnc(CSc2cnc(NC(=O)C3CCNCC3)s2)o1 + OCCn1cc(-c2cnc3nnn(Cc4ccc5ncccc5c4)c3n2)cn1 [PF04217903] (first compound 0.05 µM, partner dose 5 µM) | 88.1
NC(=O)c1ccc(N(C(N)=O)c2c(F)cccc2F)nc1-c1ccc(F)cc1F + CCCCCCCCc1ccc(CCC(N)(CO)CO)cc1 [fingolimod] (first compound 2 µM, partner dose 10 µM) | 0.536
NC(=O)c1ccc(N(C(N)=O)c2c(F)cccc2F)nc1-c1ccc(F)cc1F + C[C@@H](Oc1cc(-c2cnn(C3CCNCC3)c2)cnc1N)c1c(Cl)ccc(F)c1Cl [Crizotinib] (first compound 2 µM, partner dose 1 µM) | 76
CCCCCCCCc1ccc(CCC(N)(CO)CO)cc1 [fingolimod] + C=C(c1ccc(C(=O)O)cc1)c1cc2c(cc1C)C(C)(C)CCC2(C)C [Bexarotene] (first compound 10 µM, partner dose 10 µM) | 0.21
